# In article PMC7803741:
# Protein sequences, listed by entry. Tags and fused reporters are not part of them. Lines headed by an entry give the natural chain unless they say otherwise; changes in a name come on top. Residues count along the entry.
# UniProt P84092: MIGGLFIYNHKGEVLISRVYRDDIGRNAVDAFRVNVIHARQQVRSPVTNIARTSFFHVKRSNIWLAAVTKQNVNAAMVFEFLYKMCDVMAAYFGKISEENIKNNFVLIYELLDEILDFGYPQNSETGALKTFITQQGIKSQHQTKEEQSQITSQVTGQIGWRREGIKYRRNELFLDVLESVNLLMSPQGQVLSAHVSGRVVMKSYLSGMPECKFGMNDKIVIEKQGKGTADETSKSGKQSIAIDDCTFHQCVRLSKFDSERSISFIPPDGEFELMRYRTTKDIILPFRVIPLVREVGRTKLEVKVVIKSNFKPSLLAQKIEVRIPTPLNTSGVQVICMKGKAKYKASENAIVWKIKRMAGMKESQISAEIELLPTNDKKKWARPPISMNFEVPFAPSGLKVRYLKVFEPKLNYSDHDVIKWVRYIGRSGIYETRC
# clathrin adaptor protein AP2 (AP2 μ1 subunit): residues 158-435 of P84092
# UniProt Q9DCD6: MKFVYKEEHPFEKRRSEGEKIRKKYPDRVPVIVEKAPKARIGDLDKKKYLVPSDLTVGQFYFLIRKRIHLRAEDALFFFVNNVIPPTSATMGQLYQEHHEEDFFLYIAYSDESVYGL
# No constants are given. Whether binding was seen depends on the method and setting. For some assays here: In cells and extracts the contact can be indirect. Some binding calls cover weakened binding; strength is not graded here. For some assays here: Where a sequence is shown, tags or fusion partners need not be part of it.
# B1: GABAA receptor γ2-GIM (398-415) with N-terminal His6-tag (peptide)
# chain: ERDEEYGYECLDGKDCAS
# B2: GABAA receptor γ2-GIM Y405E (peptide, UniProt P22723-2 398-415)
# chain: ERDEEYGEECLDGKDCAS
# B3: γ2-GIM L408Q variant (peptide, UniProt P22723-2 398-415)
# chain: ERDEEYGYECQDGKDCAS
# B4: γ2-GIM E406R variant (peptide, UniProt P22723-2 398-415)
# chain: ERDEEYGYRCLDGKDCAS
# B5: AnkB-WR peptide (peptide)
# peptide: VEEERVIVSDEEIEEARQKAPLEITEY
# B6: GFP-γ2-GABAAR with a 424–441 deletion (receptor, UniProt P22723-2)
# chain: QKSDDDYEDYASNKTWVLTPKVPEGDVTVILNNLLEGYDNKLRPDIGVKPTLIHTDMYVNSIGPVNAINMEYTIDIFFAQTWYDRRLKFNSTIKVLRLNSNMVGKIWIPDTFFRNSKKADAHWITTPNRMLRIWNDGRVLYTLRLTIDAECQLQLHNFPMDEHSCPLEFSSYGYPREEIVYQWKRSSVEVGDTRSWRLYQFSFVGLRNTTEVVKTTSGDYVVMSVYFDLSRRMGYFTIQTYIPCTLIVVLSWVSFWINKDAVPARTSLGITTVLTMTTLSTIARKSLPKVSYVTAMDLFVSVCFIFVFSALVEYGTLHYFVSNRKPSKDKDKKKKNPAPTIDIRPRSATIQMNNATHLQERDEEYGYECLDGKDCASFFCCFEDCSYARIFFPTAFCLFNLVYWVSYLYL
# B7: octadecapeptide … (residues 424–441) from the TM3–TM4 intracellular loop of the GABAA receptor γ2 subunit (peptide)
# peptide: RTGAWRHGRIHIRIAKMD
# B8: full length GFP-γ2-GABAAR with a 398–415 deletion (receptor, UniProt P22723-2)
# chain: QKSDDDYEDYASNKTWVLTPKVPEGDVTVILNNLLEGYDNKLRPDIGVKPTLIHTDMYVNSIGPVNAINMEYTIDIFFAQTWYDRRLKFNSTIKVLRLNSNMVGKIWIPDTFFRNSKKADAHWITTPNRMLRIWNDGRVLYTLRLTIDAECQLQLHNFPMDEHSCPLEFSSYGYPREEIVYQWKRSSVEVGDTRSWRLYQFSFVGLRNTTEVVKTTSGDYVVMSVYFDLSRRMGYFTIQTYIPCTLIVVLSWVSFWINKDAVPARTSLGITTVLTMTTLSTIARKSLPKVSYVTAMDLFVSVCFIFVFSALVEYGTLHYFVSNRKPSKDKDKKKKNPAPTIDIRPRSATIQMNNATHLQFFCCFEDCRTGAWRHGRIHIRIAKMDSYARIFFPTAFCLFNLVYWVSYLYL
# B9: full length GFP-γ2-GABAAR E406R variant (receptor, UniProt P22723-2 39-466)
# chain: QKSDDDYEDYASNKTWVLTPKVPEGDVTVILNNLLEGYDNKLRPDIGVKPTLIHTDMYVNSIGPVNAINMEYTIDIFFAQTWYDRRLKFNSTIKVLRLNSNMVGKIWIPDTFFRNSKKADAHWITTPNRMLRIWNDGRVLYTLRLTIDAECQLQLHNFPMDEHSCPLEFSSYGYPREEIVYQWKRSSVEVGDTRSWRLYQFSFVGLRNTTEVVKTTSGDYVVMSVYFDLSRRMGYFTIQTYIPCTLIVVLSWVSFWINKDAVPARTSLGITTVLTMTTLSTIARKSLPKVSYVTAMDLFVSVCFIFVFSALVEYGTLHYFVSNRKPSKDKDKKKKNPAPTIDIRPRSATIQMNNATHLQERDEEYGYRCLDGKDCASFFCCFEDCRTGAWRHGRIHIRIAKMDSYARIFFPTAFCLFNLVYWVSYLYL
# Legend:
# [1] = target: AP2 with N-terminal His6-tag (rat) (UniProt P84092); test: SEC; analytical gel filtration; proteins with N-terminal His6-tag at 100 µM; Superose12 or Superdex200 increase 10/300 GL; 50 mM Tris pH 7.5, 100 mM NaCl, 1 mM EDTA, 1 mM DTT; AP2, GABARAP and γ2-GIM alone, in pairs and all three mixed; both purified
# [2] = target: clathrin adaptor protein AP2 (AP2 μ1 subunit) (rat) (UniProt P84092); test: condition: γ2 protein 100-200 μM injected into 10-20 μM AP2; ITC; VP-ITC at 25 °C; 50 mM Tris pH 7.8, 100 mM NaCl, 1 mM EDTA, 1 mM DTT; γ2 subunit protein or peptide (100-200 μM) injected into GABARAP, GABARAPL1 or AP2 (10-20 μM) in the cell; one-site binding model; both purified
# [3] = target: GABAAR-associated protein (GABARAP) (mouse) (UniProt Q9DCD6); test: condition: 100–200 μM in the syringe, 10–20 μM in the cell; ITC; VP-ITC, 25 °C; 50 mM Tris pH 7.8, 100 mM NaCl, 1 mM EDTA, 1 mM DTT; γ2 subunit protein or peptide (100–200 μM) injected into GABARAP, GABARAPL1 or AP2 (10–20 μM) in the cell; one-site binding model; both purified
# [4] = target: clathrin adaptor protein AP2 (AP2 μ1 subunit as printed) (rat) (UniProt P84092); test: ITC; VP-ITC, 25 °C; 50 mM Tris pH 7.8, 100 mM NaCl, 1 mM EDTA, 1 mM DTT; γ2 subunit protein or peptide (100–200 μM) injected into GABARAP, GABARAPL1 or AP2 (10–20 μM) in the cell; one-site binding model; both purified
# [5] = target: GABAAR-associated protein (GABARAP) (mouse) (UniProt Q9DCD6); test: ITC; giant ankyrin peptides and GABARAP, compared against γ2-GIM; both purified
# [6] = target: GST-GABARAP (mouse) (UniProt Q9DCD6); test: pull-down; 2 µM purified GST-Atg8 protein incubated with HEK-293 lysate of GFP-tagged γ2 subunit (1% NP-40, 1% DDM), 4 °C; GSH-Sepharose 4B; immunoblot; only the target purified
binder,measurement,setting,value
B1,binding,[1],binds
B2,binding,[2],no binding
B3,binding,[3],no binding
same,binding,[4],binds
B4,binding,[3],no binding
same,binding,[4],binds
B5,binding,[5],binds weakly
B6,binding,[6],binds
B7,binding,[3],no binding
B8,binding,[6],no binding
B9,binding,[6],no binding
